From article PMC5836133
This is one part of the list. At the low end of the ranking the order means little.

Tested on: T1, GST-NbGlk1(82-244)
T1 sequence: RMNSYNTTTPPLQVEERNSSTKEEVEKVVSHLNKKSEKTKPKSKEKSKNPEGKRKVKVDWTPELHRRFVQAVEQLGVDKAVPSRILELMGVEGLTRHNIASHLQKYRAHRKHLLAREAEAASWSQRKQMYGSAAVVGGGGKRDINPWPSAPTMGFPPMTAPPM
Test: protein-binding microarray;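 further: rank-based score ranging −0.5 to +0.5 with E above 0.45 taken as significant binding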
Details: NbGlk1 is a Golden2-like transcription factor of Nicotiana benthamiana; high values mean tight binding; most listed sequences are background and not binding sites; double strand, one strand shown

Sequence | binding signal [E-score]
CACCTCGG | -0.222
ATGAAAAT | 0.321
ATTGTTAG | 0.143
CAATCCGA | 0.35
ACATAGAT | 0.223
AGACTCAC | -0.277
ACGTCCAA | -0.153
AAGGTGCT | -0.185
ATGGGACG | -0.158
AATTGTGG | 0.15
ATTTTATA | 0.281
AACTCGGC | -0.0141
ACAGTCGA | -0.00395
AAGCTAGA | 0.0466
AGTAGCCG | -0.225
ATGGGTAA | 0.0482
AAGCCTGT | -0.137
ACCATTGC | -0.127
ATGATAGC | -0.00753
ATTGGGCG | -0.106
AGATTGAC | 0.0103
AAAAATGA | 0.112
AAGGGGGA | -0.0894
ATTTCGAG | 0.269
AGGTGCGA | -0.0439

Sequence | binding signal [E-score]
AAGTCCAG | -0.0936
AGGCGCTC | -0.179
AACGGGAT | 0.121
ATATTTAG | 0.298
ATCCGAGC | 0.174
AGTTTGTG | -0.0786
ACCCCCAG | -0.295
CAAGGTGC | -0.282
ACTAAGGC | -0.166
CACGAGTG | -0.086
AAGGGCAT | -0.154
ACGTGGAC | -0.0674
ATCGTTTG | 0.00889
AAGCTGAT | 0.0401
ATGCTCTC | -0.157
AGTAGGGA | -0.101
CAAGCAGA | 0.113
AATAGCTC | -0.0662
CAGATAGC | 0.12
AATCGTTG | 0.203
AAAGTCCA | -0.263
ATTATAGC | 0.0652
AGGGGACG | -0.267
ATGGGTCA | -0.222
AGAGTTAG | 0.0805

Sequence | binding signal [E-score]
ATTTCGCC | 0.17
AATGAAGT | -0.0292
CACAATGC | -0.0659
ACAACGGG | -0.135
AACCTCTA | -0.179
ATAGGGTA | 0.0279
CAGAGGCG | -0.2
AGCGCCAG | -0.152
ATCTAAAA | 0.244
AAGCGACT | -0.23
ATTGACTA | -0.0881
ATGGCCTG | -0.0819
AGGATGGC | -0.192
ACACTTCG | -0.0148
ATCTTAGA | 0.243
ATATAGTA | 0.15
AAGCCCCG | -0.248
ATTGCCGA | 0.184
ACTATTTC | -0.0196
ACTCCAGC | -0.197
ACTACTTA | 0.0668
AATGTATG | 0.0607
AGCAATGA | -0.0666
AAACCTCC | -0.279
AAAGGAAG | -0.148

Sequence | binding signal [E-score]
ACGACTAT | -0.042
ATAGCTTG | 0.0516
AAATGCTT | 0.0584
ACCCAAGA | 0.0238
CAGAGAAA | 0.0998
ACGGAAAG | -0.131
AATTTTGG | 0.25
ACCGGGAT | 0.178
ATATGAAG | 0.207
AAGAAAGA | -0.0342
ACCCGTAA | 0.0729
ACTATCGA | 0.106
ACCAGATC | 0.2
AGTTGAAT | -0.0612
AATGTTCT | -0.0168
AGTACCGC | -0.22
AAATTGTT | 0.114
ACTCACCG | -0.137
ACTGATCT | 0.0467
ACTAGACC | -0.176
ATTAGCGG | 0.00925
AGGAGCAG | -0.254
AAACAGAG | -0.0862
ACCAGGCC | -0.238
AGTTAGAC | -0.177

Sequence | binding signal [E-score]
AGTTGGCC | -0.182
AGATCGGA | 0.277
ACGTATTA | 0.113
AGATTATA | 0.31
AAGGTGTA | -0.108
AGTACTCC | -0.125
CAGCCAAC | -0.23
ACCTAAAA | 0.0323
CACTACAG | -0.149
AGCACTGA | -0.0105
ATTGGTAA | 0.082
AAGTTCAA | 0.049
ATGCGTCA | 0.0153
AATGATGT | 0.0742
CAAGGGAC | -0.238
AATGTGAT | 0.0961
ACTCACTC | -0.0834
AAAAGAAT | 0.267
ACGGCCAA | -0.0769
ACTAGGTG | -0.132
ACAAACAA | 0.106
AGGGACAG | -0.281
AGACTAAA | -0.0428
ATCTTAAT | 0.321
ACGAACCA | -0.115

Sequence | binding signal [E-score]
ACCGCGCA | -0.119
ACCACAGC | -0.249
ACCCCCCG | -0.204
ACCCGACG | -0.267
ATTTGTCA | 0.186
ACACAAAA | 0.169
AGGTTGTA | -0.0384
AACGCGTG | -0.132
AGGTACGC | -0.155
ACAATTAA | 0.0393
AGCACGCT | -0.229
ATGTGAGA | 0.0449
AGCTTTTA | 0.0917
ACTCGCGC | -0.0784
ACGACCGG | -0.0908
AAAGGGTG | -0.24
AGTGAGAT | 0.312
AAGTGCGG | -0.0856
AACTCGAC | -0.155
ATACCTTA | 0.133
AGGACCCA | -0.207
AACGCCAA | -0.147
ATTCATCC | -0.0201
AACACGTA | 0.118
CACCAACG | -0.276

Sequence | binding signal [E-score]
AACTGTAG | -0.0415
ATTGAAAA | 0.214
ACGTACTC | -0.101
ACTGCAGC | -0.174
AGGGCTTA | -0.203
ACGAGTAT | 0.093
CAACAGAG | -0.17
ACGAACTG | -0.0281
CAACTCAA | -0.0821
AACCGCCC | -0.181
CACGGTCC | -0.178
ATCGAAAA | 0.176
CAGACCAA | -0.0896
AGAAGCGA | 0.014
ATAGTGGC | -0.111
ATTGGCGC | -0.0353
AGGCCCGG | -0.324
AACGTCTC | -0.166
ACTGGGAT | 0.186
CAGCATGG | -0.0124
ACCAGGCT | -0.185
ACCTCGTG | -0.164
AAAAGGGC | -0.178
AGTTCCGG | -0.169
CACCACTG | -0.146

Sequence | binding signal [E-score]
ATCCATCA | 0.189
AGAAAACG | -0.0994
ACGAGGAC | -0.248
AGGTGCCC | -0.355
ACGAAATC | 0.477
AATTAATC | 0.125
AGCAACGG | -0.176
AGATGAGA | 0.0729
AACACCTA | -0.0524
ATCCGCAT | 0.272
ATGTACGG | -0.0643
ATCGCTTC | 0.206
ACTACCGG | -0.0394
AGGTCCCC | -0.355
ACGACTAG | -0.168
AAATAGCA | 0.0222
ATTACCAG | 0.219
AGGATTCG | 0.352
ATCAAAAC | 0.0607
AGAGTGAG | -0.0937
ACAGGAAG | -0.0521
AATTACAA | 0.196
AGGTTGAC | -0.141
AGCCGCTA | -0.292
CAAGGTCA | -0.172

Sequence | binding signal [E-score]
AGTTGGAG | -0.104
ATACACCC | 0.0421
AGTCCAAA | 0.0409
ACTTGTAG | -0.141
ACTCAGCG | -0.101
AACGGTGC | -0.218
AACTTTAC | -0.0483
ATCGTGAC | 0.129
ATCAGGTC | 0.0814
ATCCGACC | 0.158
ACAGATGT | -0.061
AGCAGAGG | -0.143
ACTACGAC | -0.276
AAACGACA | 0.0175
AGCACGCA | -0.135
AGCCCGGG | -0.221
AGGCCCTA | -0.278
ATACATCG | 0.0121
ATCGGTGG | 0.0677
ACGGACTG | -0.244
ATGGATTG | 0.21
ATCCAAAT | 0.302
AAATAGGT | 0.0372
AATTTCCG | 0.257
ATGACTAG | -0.0378

Sequence | binding signal [E-score]
AACCGTTA | 0.0256
ATTAACAC | 0.122
CAAAATAA | 0.205
ATACAGAA | 0.221
AGAGACGC | -0.266
AGGGGTTA | -0.044
AAGGGCAC | -0.246
AAAGGAGC | -0.195
ACTGGGGA | -0.0882
AGCAGGGC | -0.202
AAGAGTTC | -0.0576
AGAGACTC | -0.151
ATTTGCAC | 0.305
AAATGGAT | 0.235
ACAGACCA | -0.168
AGTTAAAA | 0.111
ACACAAAG | 0.0708
ACGACGAT | 0.176
CACTAAGG | -0.235
ACCTGCTA | -0.159
ACGTTTCT | -0.0416
AAGCTACC | -0.2
AGTCAAAG | 0.0265
AATGGTCG | -0.0888
ACCCTCCG | -0.0831

Sequence | binding signal [E-score]
AGACGATA | 0.0431
ATGTACCG | -0.0456
AGCTACCA | -0.229
ATATCTTG | 0.436
AGCCCTAG | -0.219
CAATCAAC | 0.175
ATACAACG | -0.0522
CAGACGTC | -0.0262
AGAGGGAC | -0.257
ACGTACCA | -0.175
ATGTCAAC | -0.00583
AGAAATCA | 0.379
ACGGCGAA | -0.0243
CAACGTAG | 0.0208
ACGTGTGG | -0.156
CACTTCCA | -0.0634
AGGAGGTG | -0.254
ATAGCTAA | 0.00643
ATTGTGTA | 0.249
CACGGAAC | 0.0109
AGATGACT | -0.146
ACGAGCGT | -0.0911
ATGTAATA | 0.142
AGCGTAAT | 0.337
AGTCTCCA | -0.119

Sequence | binding signal [E-score]
AGTGCTTC | -0.22
ACACTGAC | -0.0711
AGAGCACA | -0.0673
AGTACCAA | -0.111
AGTCTGCA | -0.151
CAGCGGCA | -0.298
AGAAGAAC | -0.194
AGTCGCAT | -0.224
ACTTCGCT | 0.0597
ACAGGGCT | -0.207
AACTATGC | 0.0135
AGGTGTAA | 0.106
AGTAGTCG | -0.149
AATCGACA | 0.156
CACGGGTC | -0.246
ACCTGAAT | 0.0675
CACCAAGG | -0.122
ATTCTTAA | 0.276
AACCTAAA | 0.0417
AATCTTGT | 0.397
CAACATCA | 0.0662
AAGCTGAC | -0.198
ATACATGG | -0.0664
AAGGTCTA | -0.159
AAACGTTA | -0.0102

Sequence | binding signal [E-score]
AAAACATC | -0.0291
AAACAACT | 0.116
CAGAGACA | -0.0839
ATCTTCAT | 0.297
AACCGCCG | -0.115
ATGGCTTC | -0.188
AAGAGGAT | 0.283
ATTTAATG | 0.189
AATTCGGC | 0.115
AAGAACTA | -0.0204
AATGAGCA | -0.0619
AAGGCATA | -0.117
AGCCAGAA | 0.0031
AACCATAG | -0.0512
ACGAGTCA | 0.0151
ATTGAAGG | -0.0492
CACCCCCC | -0.263
ATCTCTTC | 0.286
ACGGCACC | -0.106
ACCGGCGT | -0.152
AGGTCCAC | -0.176
AAGAACAC | -0.0919
ATGTCTAA | -0.0453
ACAGATCG | 0.272
ACAAGCGC | -0.129

Sequence | binding signal [E-score]
ACTATTGC | 0.0395
AGTGAATC | 0.143
AAGACTGC | -0.12
AGATGACA | -0.0419
AAACGAAC | -0.12
ACCTAGAC | -0.203
ATATACAT | 0.199
AGGCTTGC | -0.295
AGAGTCAG | -0.122
AATATCCG | 0.426
AATCATCC | 0.137
ACAGCCAT | -0.15
AATACCTC | -0.00669
ATAAAATA | 0.22
AGAACTAC | 0.00191
AAGTAATT | 0.184
ATAACTGA | 0.0441
CACTCGGA | 0.0612
AATACTTA | 0.132
